Results reported in PubChem BioAssay AID1845213 (Molecular Pharmacology Branch, DTP, NCI, 2023).
Certain results were filed several times, with different values. The list is limited to them. There may be further records. The records of an entry repeat one measurement across runs, samples, wells, individuals or studies. Counts like (3×) say how often a value occurs here. Dates in brackets are months of testing.

System: NCI-H841 complex tumor spheroid viability
Assay: Anticancer human tumor NCI-H841 cell line growth inhibition;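 note: spheroids exposed to compounds for 7 days before readout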;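 for viability, T/C: 100% = DMSO vehicle control wells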
Details: for IC50: compound alone; for viability, T/C: stronger effect = lower value
Source text: Multicellular complex tumor spheroid response to DNA repair inhibitors in combination with DNA-damaging drugs
This study explores the anticancer activities of DNA-damaging drugs and inhibitors of DNA damage repair, both as single agents and in combinations. Complex tumor spheroids comprised of malignant cells, endothelial cells and mesenchymal stem cells served as an in vitro model for human solid tumors. This model system incorporates physiologically relevant features and patient-derived or established malignant cell lines with clinically relevant genetic alterations from many tumor types. Twenty-six patient-derived or established malignant cell lines were evaluated representing sarcoma, melanoma, small cell lung cancer (SCLC), non-small cell lung cancer (NSCLC), as well as bladder, ovarian and pancreatic cancers. The concentration ranges selected for each drug and investigational agent were based upon clinically achievable concentrations if the clinical Cmax of the agent was known.
Compounds. The drugs and compounds olaparib (NSC753686), talazoparib (NSC767125), berzosertib (NSC777718), elimusertib (NSC800525), nedisertib (NSC802822), VX-984 (NSC792969), AZD-1390 (NSC803789), temozolomide (NSC362856), topotecan (NSC609699), trabectedin (NSC813783), staurosporine (NSC755774), and gemcitabine (NSC613327) were obtained from the National Cancer Institute (NCI) Developmental Therapeutics Program Chemical Repository. The FDA-approved anticancer drug set is available from the Developmental Therapeutics Program at https://dtp.cancer.gov/organization/dscb/obtaining/available_plates.htm. […] The stock solutions were prepared in dimethyl sulfoxide (DMSO, Sigma-Aldrich, St. Louis, MO, cat. D2650) at 400-fold the tested concentration and stored at -70 degrees C. Prior to their use, the stock solutions were diluted in fresh medium and the final DMSO concentration in the assay was 0.25% (v/v). All drugs and investigational agents were tested over a range starting from a high concentration at or near the clinical Cmax and decreasing in half-log increments. If the clinical Cmax for an agent had not been determined, the highest concentration tested was 10 microM.
Cell Lines. The patient-derived cancer cell (PDC) lines: 156681-154-R-J1-PDC, 283228-195-R-J1-PDC, 287954-098-R-J1-PDC, 292921-168-R-J2-PDC, 349418-098-R-PDC, 425362-245-T-J1-PDC, 556581-035-R-J1-PDC, and BL0293-F563-PDC were received from the NCI Patient-Derived Models Repository (PDMR, https://pdmr.cancer.gov). The established cell lines HS-SY-2 (RRID:CVCL_8719), MPNST, and SYO-1 (RRID:CVCL_7146) were obtained from the Sloan Kettering Institute. The alveolar soft parts sarcoma cell line ASPS-1 (RRID:CVCL_S738) was established at the NCI and grown from internal seed stocks. The following established cell lines were purchased from the American Type Culture Collection (ATCC, Manassas, VA): G-401 (ATCC, cat. CRL-1441, RRID:CVCL_0270), SW982 (ATCC, cat. HTB-93, RRID:CVCL_1734), VA-ES-BJ (ATCC, cat. CRL-2138, RRID:CVCL_1785), NCI-H719 (ATCC, cat. CRL-5837, RRID:CVCL_1582), NCI-H196 (ATCC, cat. CRL-5823, RRID:CVCL_1509), NCI-H841 (ATCC, cat. CRL-5845, RRID:CVCL_1595), NCI-H1618 (ATCC, cat. CRL-5879, RRID:CVCL_1480), NCI-H1876 (ATCC, cat. CRL-5902, RRID:CVCL_1503), DMS 114 (ATCC, cat. CRL-2066; RRID:CVCL_1174), NCI-H211 (ATCC, cat. CRL-5824; RRID:CVCL_1529), and SW 1271 (ATCC, cat. CRL-2177, RRID:CVCL_1716). The small cell lung cancer cell line COR-L88 was purchased from Sigma-Aldrich (cat. 92031917-1VL, RRID:CVCL_1141). The non-small cell lung cancer cell lines NCI-H226 (RRID:CVCL_1544) and NCI-H322M (RRID:CVCL_1557) were established at the NCI and grown from internal seed stocks. Pooled donor human umbilical vein endothelial cells (HUVEC, Lonza, cat. CC-2519) and human mesenchymal stem cells (hMSC, Lonza, cat. PT-2501) were purchased from Lonza (Walkersville, MD).
Cell Culture. All cells were maintained in an incubator at 37 degrees C and 5% CO2 with 95% humidity. […]

Compound: Cn1ncnc1[C@H]1c2n[nH]c(=O)c3cc(F)cc(c23)N[C@@H]1c1ccc(F)cc1
- IC50: < 9.49 nM, 341 nM [2019-11] and 697 nM [2019-12]
- viability, T/C (compound alone 0.949 µM): 8.22%, 7.69% [2019-11] and 37.9% [2019-12]

Compound: Cn1nnc2c(C(N)=O)ncn2c1=O
- viability, T/C (compound alone 31.6 µM): 105, 102 (2×), 97.6, 96.9, 99.3, 1.65, 101% (2×)
- viability, T/C (compound alone 100 µM): 101, 100, 95.9, 103, 95.8, 1.49, 99.5, 96.6, 94.9%

Compound: COc1cc2c(cc1O)CCNC21CSC2c3c(OC(C)=O)c(C)c4c(c3C(COC1=O)N1C(O)C3Cc5cc(C)c(OC)c(O)c5C(C21)N3C)OCO4 (stereo not drawn)
- viability, T/C (compound alone 0.0003 µM): 11.6, 42.3, 43.9 (2×), 44.1, 42.6, 39.7, 29.2, 20.4, 45.3%

Compound: O=C(c1cc(Cc2n[nH]c(=O)c3ccccc23)ccc1F)N1CCN(C(=O)C2CC2)CC1
- viability, T/C (compound alone 9.49 µM): 7.6%, 31.3% [2019-11] and 5.24% [2019-12]

Compound: COc1cc(C)[nH]c(=O)c1CN1CCc2c(Cl)cc(C(OC)C3COC3)c(Cl)c2C1=O (stereo not drawn)
- IC50: 344 nM [2019-11] and > 10 µM [2019-12]

Compound: CC[C@@]1(O)C(=O)OCc2c1cc1n(c2=O)Cc2cc3c(CN(C)C)c(O)ccc3nc2-1
- viability, T/C (compound alone 0.00949 µM): 62.1, 58.2, 61.5, 64.1, 69.2% [2019-11] and 86.1, 85, 87, 84.2, 84% [2019-12]
